Out of some 410,000 compounds screened, about 5,000 (1.2%) were called active. Inconclusive means that the source gave no clear call. Such entries were picked first, then a sample of the others. The call rests on the fitted dose curve; in most records, active means well fitted inhibition curve with a large enough effect; inconclusive means small, poorly fitted or top-dose-only effect; inactive means no such curve, though single readings can be large or run the other way. Where the call is inconclusive, the potency comes from a doubtful curve fit.
test: qHTS for Inhibitors of TGF-b; conditions: HepG2 CAGA-GFP TGF-b/SMAD3 reporter, GFP fluorescence, 18 h, TGF-beta stimulated, 500 pg/mL final; series mostly up to 46.1 µM; further: nearly all actives have a fitted effect of over 65% in size
Outline: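 Read-out: total well GFP (ex488/em500-530) summed from mean per-cell fluorescence. Cells: HEPG2 CAGA-GFP, 1% FBS DMEM, 18 h at 37 degrees C with 500 pg/mL final TGF-beta. Unstimulated wells served as the full-inhibition control; stimulated DMSO wells = 0%.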
Potency means the concentration at half of the fitted maximal effect; tags describe the fitted curve by direction and shape.

Row | SMILES | Potency
1 | C[C@@H](NC(=O)c1[nH]cnc1C(=O)Nc1ccccc1)c1ccccc1 | active: 14.1 µM
2 | CN(C)S(=O)(=O)c1cc(NC(=O)CSc2nn(-c3ccc(Cl)cc3)c(=S)s2)ccc1Cl | active: 11.2 µM
3 | COc1ccc(-c2cc(C(=O)Nc3c(Cl)cccc3Cl)no2)cc1OC | inactive
4 | CCOc1ccc(N(CC(=O)Nc2ccccc2C)S(=O)(=O)c2c(C)noc2C)cc1 | inconclusive: 11.2 µM [inhibitor, partial curve, poor fit]
5 | CC(C)Oc1ccc(CN2CCC2(C)C(=O)NCc2ccc(C(F)(F)F)cc2)cc1 (stereo not drawn) | inconclusive: 35.5 µM [inhibitor, single point]
6 | COc1ccc(Nc2cc(C)nc(-n3nc(C)cc3C)n2)cc1Cl | inconclusive: 3.55 µM [inhibitor, partial curve, poor fit]
7 | Cc1nc2ccccc2cc1C(=O)Nc1ccccc1Cl | inconclusive: 0.447 µM [inhibitor, full curve, poor fit]
8 | Cc1ccc(Cn2c(=N)c(C(=O)NCC3CCCO3)cc3c(=O)n4cccc(C)c4nc32)cc1 (stereo not drawn) | inactive
9 | Cc1cc(C)cc(NC(=S)NC2CC3CCCC(C2)N3C2CC2)c1 (stereo not drawn) | inconclusive: 35.5 µM [inhibitor, single point]
10 | COc1ccc(CCNC(=O)CCc2c(C)nc3c(c(C)nn3-c3ccc(C)cc3)c2C)c(OC)c1 | inconclusive: 5.01 µM [inhibitor, single point]
11 | COc1ccc(C(=O)N/C(=C\c2cc(OC)c(OC)cc2[N+](=O)[O-])C(=O)NCCO)cc1 | inconclusive: 0.112 µM [inhibitor, full curve, poor fit]
12 | COc1ccccc1OCCC(=O)Nc1cccc(S(=O)(=O)N2CCCCC2)c1 | inconclusive: 2.82 µM [inhibitor, single point]
13 | O=[N+]([O-])c1ccc(N2CCN(Cc3ccccc3)CC2)s1 | inactive
14 | CCCCC(=O)N1C/C=C\C(c2ccc(OC)cc2)N(Cc2ccc(F)cc2)C(=O)[C@H]1Cc1ccccc1 (stereo partly drawn) | inconclusive: 17.8 µM [inhibitor, single point]
15 | Cc1ccc(-c2cc([C@H]3[C@H]4C=CC[C@@H](C)[C@@H]4C(=O)N3Cc3ccccc3)ccc2F)cc1 | inactive
16 | CCOc1ccc(-c2nc3c(C#N)c[nH]n3c2NC2CCCC2)cc1 | inconclusive: 25.1 µM [inhibitor, single point]
17 | O=c1c2cc(Cl)ccc2nc(-c2ccc(Cl)c(Cl)c2)n1O | inconclusive: 11.2 µM [inhibitor, partial curve]
18 | CCNC(=O)Nc1ccc(-n2nc(C)c(C(=O)OCC)c2C)nc1 | inactive
